Results as given in the supplement of paper PMC8728848.
Some of the results follow.

Columns and labels:
Assay in all cases: glycan array binding signal (z-score within array); higher = stronger binding
Conditions in all cases: glycan notation: IUPAC condensed, linker removed
[1] = target: Neu5Ac(a2-6)Gal(b1-4)GlcNAc(b1-2)Man(a1-3)[Man(a1-6)]Man(b1-4)GlcNAc(b1-4)GlcNAc
Procedure, shortened: (§1)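 Glycan array data came from 3228 arrays in the Consortium for Functional Glycomics database, and only arrays with an available protein sequence were kept. Glycan names were put into IUPAC-condensed notation, and columns mapping to the same glycan were averaged. The binding signal is a within-array Z-score, averaged across arrays of one protein sequence run at different concentrations or buffers and across linkers. A negative Z-score can be read as non-binding.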

[2] = target: Neu5Ac(a2-6)Gal(b1-4)GlcNAc(b1-2)Man(a1-3)[Neu5Ac(a2-3)Gal(b1-4)GlcNAc(b1-2)Man(a1-6)]Man(b1-4)GlcNAc(b1-4)GlcNAc
Procedure, shortened: as §1

[3] = target: Neu5Ac(a2-6)Gal(b1-4)GlcNAc(b1-2)Man(a1-3)[Neu5Ac(a2-6)Gal(b1-4)GlcNAc(b1-2)Man(a1-6)]Man(b1-4)GlcNAc(b1-4)GlcNAc
Procedure, shortened: as §1

[4] = target: Neu5Ac(a2-6)Gal(b1-4)GlcNAc(b1-2)Man(a1-3)[Neu5Ac(a2-6)Gal(b1-4)GlcNAc(b1-2)Man(a1-6)]Man(b1-4)GlcNAc(b1-4)[Fuc(a1-6)]GlcNAc
Procedure, shortened: as §1

[5] = target: Neu5Ac(a2-6)Gal(b1-4)GlcNAc(b1-2)Man(a1-6)Man(b1-4)GlcNAc(b1-4)GlcNAc
Procedure, shortened: as §1

[6] = target: Neu5Ac(a2-6)Gal(b1-4)GlcNAc(b1-2)Man(a1-6)[Gal(b1-4)GlcNAc(b1-2)Man(a1-3)]Man(b1-4)GlcNAc(b1-4)GlcNAc
Procedure, shortened: as §1

[7] = target: Neu5Ac(a2-6)Gal(b1-4)GlcNAc(b1-2)Man(a1-6)[GlcNAc(b1-2)Man(a1-3)]Man(b1-4)GlcNAc(b1-4)GlcNAc
Procedure, shortened: as §1

[8] = target: Neu5Ac(a2-6)Gal(b1-4)GlcNAc(b1-2)Man(a1-6)[Man(a1-3)]Man(b1-4)GlcNAc(b1-4)GlcNAc
Procedure, shortened: as §1

[9] = target: Neu5Ac(a2-6)Gal(b1-4)GlcNAc(b1-2)[Neu5Ac(a2-6)Gal(b1-4)GlcNAc(b1-4)]Man(a1-3)[GlcNAc(b1-4)][Neu5Ac(a2-6)Gal(b1-4)GlcNAc(b1-2)[Neu5Ac(a2-6)Gal(b1-4)GlcNAc(b1-6)]Man(a1-6)]Man(b1-4)GlcNAc(b1-4)GlcNAc
Procedure, shortened: as §1

[10] = target: Neu5Ac(a2-6)Gal(b1-4)GlcNAc(b1-2)[Neu5Ac(a2-6)Gal(b1-4)GlcNAc(b1-4)]Man(a1-3)[GlcNAc(b1-4)][Neu5Ac(a2-6)Gal(b1-4)GlcNAc(b1-4)Man(a1-6)]Man(b1-4)GlcNAc(b1-4)GlcNAc
Procedure, shortened: as §1

[11] = target: Neu5Ac(a2-6)Gal(b1-4)GlcNAc(b1-2)[Neu5Ac(a2-6)Gal(b1-4)GlcNAc(b1-6)]Man(a1-6)[Neu5Ac(a2-6)Gal(b1-4)GlcNAc(b1-2)Man(a1-3)][GlcNAc(b1-4)]Man(b1-4)GlcNAc(b1-4)GlcNAc
Procedure, shortened: as §1

[12] = target: Neu5Ac(a2-6)Gal(b1-4)GlcNAc(b1-3)Gal(b1-3)GlcNAc
Procedure, shortened: as §1

[13] = target: Neu5Ac(a2-6)Gal(b1-4)GlcNAc(b1-3)Gal(b1-4)GlcNAc
Procedure, shortened: as §1

[14] = target: Neu5Ac(a2-6)Gal(b1-4)GlcNAc(b1-3)Gal(b1-4)GlcNAc(b1-2)Man(a1-3)[Neu5Ac(a2-6)Gal(b1-4)GlcNAc(b1-3)Gal(b1-4)GlcNAc(b1-2)Man(a1-6)]GalNAc
Procedure, shortened: as §1

[15] = target: Neu5Ac(a2-6)Gal(b1-4)GlcNAc(b1-3)Gal(b1-4)GlcNAc(b1-3)Gal(b1-4)GlcNAc
Procedure, shortened: as §1

[16] = target: Neu5Ac(a2-6)Gal(b1-4)GlcNAc(b1-3)Gal(b1-4)GlcNAc(b1-3)Gal(b1-4)GlcNAc(b1-2)Man(a1-3)[Neu5Ac(a2-6)Gal(b1-4)GlcNAc(b1-3)Gal(b1-4)GlcNAc(b1-3)Gal(b1-4)GlcNAc(b1-2)Man(a1-6)]GalNAc
Procedure, shortened: as §1

[17] = target: Neu5Ac(a2-6)Gal(b1-4)GlcNAc(b1-3)Gal(b1-4)GlcNAc(b1-3)GalNAc
Procedure, shortened: as §1

[18] = target: Neu5Ac(a2-6)Gal(b1-4)GlcNAc(b1-3)Gal(b1-4)GlcNAc(b1-3)[Neu5Ac(a2-6)Gal(b1-4)GlcNAc(b1-3)Gal(b1-4)GlcNAc(b1-6)]GalNAc
Procedure, shortened: as §1

[19] = target: Neu5Ac(a2-6)Gal(b1-4)GlcNAc(b1-3)Gal(b1-4)GlcNAc(b1-6)[Gal(b1-3)]GalNAc
Procedure, shortened: as §1

[20] = target: Neu5Ac(a2-6)Gal(b1-4)GlcNAc(b1-3)Gal(b1-4)[Fuc(a1-3)]GlcNAc(b1-3)Gal(b1-4)[Fuc(a1-3)]GlcNAc
Procedure, shortened: as §1

[21] = target: Neu5Ac(a2-6)Gal(b1-4)GlcNAc(b1-3)GalNAc
Procedure, shortened: as §1

[22] = target: Neu5Ac(a2-6)Gal(b1-4)GlcNAc(b1-3)[Neu5Ac(a2-6)Gal(b1-4)GlcNAc(b1-6)]GalNAc
Procedure, shortened: as §1

[23] = target: Neu5Ac(a2-6)Gal(b1-4)GlcNAc(b1-6)GalNAc
Procedure, shortened: as §1

[24] = target: Neu5Ac(a2-6)Gal(b1-4)GlcNAc(b1-6)[Gal(b1-3)GlcNAc(b1-3)]Gal(b1-4)Glc
Procedure, shortened: as §1

[25] = target: Neu5Ac(a2-6)Gal(b1-4)GlcNAc(b1-6)[Gal(b1-3)]GalNAc
Procedure, shortened: as §1

[26] = target: Neu5Ac(a2-6)Gal(b1-4)GlcNAc6S
Procedure, shortened: as §1

Neu5Ac(a2-6)GalNAc = target: Neu5Ac(a2-6)GalNAc
Procedure, shortened: as §1

[27] = target: Neu5Ac(a2-6)GalNAc(b1-4)GlcNAc
Procedure, shortened: as §1

[28] = target: Neu5Ac(a2-6)GalNAc(b1-4)GlcNAc6S
Procedure, shortened: as §1

[29] = target: Neu5Ac(a2-6)GlcNAc(b1-4)GlcNAc
Procedure, shortened: as §1

[30] = target: Neu5Ac(a2-6)GlcNAc(b1-4)GlcNAc(b1-4)GlcNAc
Procedure, shortened: as §1

B1: MGL2 (Mus musculus), Q8JZN1 (protein)
chain: MTMRYENFQNLEREEKNQEMRNGDKKGGMESPKFALIPSQSFLWRILSWTHLLLFSLGLSLLLLVVISVIGSQNSQLRRDLGTLRAILDNTTSKIKAEFQSLDSRADNFEKGISSLKVDVEDHRQELQAGRDLSQKVTSLESTLEKREQALKTDLSDLTDHVQQLETDLKALTCQLANLKNNGSEVACCPLHWTEHEGSCYWFSESEKSWPEADKYCRLENSHLVVVNSLEEQNFLQNRLANVLSWMGLTDQNGPWRWVDGTDFDKGFKNWRPLQPDNWHGHMLGGGEDCAHFSYDGRWNDDVCQRHYHWICETELGKASSAHSPQLIASVP
In the case of B1, the “glycan array binding signal (z-score)” value [1] is reported as -0.199, the “glycan array binding signal (z-score)” value [2] is reported as -0.217 and the “glycan array binding signal (z-score)” value [3] is reported as -0.178. For the same binder, the “glycan array binding signal (z-score)” value [4] was -0.157, the “glycan array binding signal (z-score)” value [5] was -0.268 and the “glycan array binding signal (z-score)” value [6] was -0.174. For the same binder, the “glycan array binding signal (z-score)” value [7] was -0.184, the “glycan array binding signal (z-score)” value [8] was -0.178 and the “glycan array binding signal (z-score)” value [9] was -0.223. For the same binder, the “glycan array binding signal (z-score)” value [10] was -0.19, the “glycan array binding signal (z-score)” value [11] was -0.258 and the “glycan array binding signal (z-score)” value [12] was -0.032. The “glycan array binding signal (z-score)” value [13] was -0.298, the “glycan array binding signal (z-score)” value [14] was 0.141 and the “glycan array binding signal (z-score)” value [15] was -0.239. The “glycan array binding signal (z-score)” value [16] was 0.66, the “glycan array binding signal (z-score)” value [17] was -0.283 and the “glycan array binding signal (z-score)” value [18] was 0.233. The “glycan array binding signal (z-score)” value [19] was -0.073, the “glycan array binding signal (z-score)” value [20] was -0.246 and the “glycan array binding signal (z-score)” value [21] was -0.116. For the same binder, the “glycan array binding signal (z-score)” value [22] was -0.205, the “glycan array binding signal (z-score)” value [23] was -0.074 and the “glycan array binding signal (z-score)” value [24] was -0.123. For the same binder, the “glycan array binding signal (z-score)” value [25] was -0.022, the “glycan array binding signal (z-score)” value [26] was -0.16 and the “glycan array binding signal (z-score)” value (Neu5Ac(a2-6)GalNAc) was -0.206. The “glycan array binding signal (z-score)” value [27] was -0.218, the “glycan array binding signal (z-score)” value [28] was -0.1 and the “glycan array binding signal (z-score)” value [29] was -0.233. The “glycan array binding signal (z-score)” value [30] was -0.258.
